Results from the RNAGym collection of RNA variant scans (doi:10.7554/elife.90254).
The source gives no read counts; variants with many changes may rest on few reads.

B1: OR4K15 (parent)
chain: GUUAACGGUCAUAGGCCAUGGAAACUAGGAGCACCAUUUCGCUGCCAGUGAAGAAAUGAACAAAGAAAAUCUGGGCCAGGCAGGCAUCAAAAGAAAUAGUCUUGCGCUCAACCAGAAAGUCUGUAAUCAUUUUAAGGGUA

Variants of: B1
Test: self-cleavage, relative activity (ratio to wild type); higher = more cleavage; in vitro, sequencing; the parent is a self-cleaving ribozyme

Row | Variant | self-cleavage
1 | G14C U72C A95G | 0.68
2 | C16G G48U A82U C112U | 0.03
3 | A13U A47U G75A A94G U97C | 0.09
4 | A18G A22U U100G C121U U132C | 2.8
5 | C16U A23G U87C | 1.05
6 | G14U A33U A52G U103C | 1.67
7 | G14A A24G U102A | 0.85
8 | C16A U19C A23G G48A A118G | 0.54
9 | G15C U38C U100C | 2.58
10 | A18C A69G C107G U124C | 0.01
11 | C16G A18C A36U U108C | 0.05
12 | A13G U72A U122C | 0.27
13 | A13U A23G C35U | 1.4
14 | A13U A59U A66G A140U | 1.24
15 | A13U G41A U57C A63G | 0.7
16 | A13U U43C A56G G106A | 0.03
17 | C17U A67G A90G A135G | 0.36
18 | C16U A59G A89G U132C | 1.34
19 | A18G A23G U87A A94C | 0.77
20 | C17G A60G A90G U127C | 0.19
21 | C17U A22G A36G | 1.09
22 | A18G A23G A52U U108G | 0.11
23 | A13U A18U A68G | 1.95
24 | A13U U37C U43C A66G U97C U130C | 0.56

Row | Variant | self-cleavage
25 | G14A A90G A125G | 0.11
26 | G14A A51G A52G A69U U87C A118U | 0.86
27 | G15A U43A A64G U102C U122C | 2.63
28 | G15A A33G U70C U120C | 0.05
29 | G14A A36U U108C | 0.01
30 | A18C U127C A140C | 0.98
31 | C16G A23G A51G A110G U122C U127A | 0.1
32 | G14A A23G A52U U72C A89U A114G | 1.3
33 | C17A A30U U122A | 0.84
34 | G15C U19C U37C A64G A96G A135C | 0.7
35 | A18G A30G A63G A78U | 0.4
36 | G14A A56G A59U A94G | 0.36
37 | A18G A23G A52G A118G | 0.83
38 | A13U A52G A117G | 1.58
39 | G14C A47G A67G G74A A89U A126G | 0.02
40 | C16U U26A A62G A126C | 0.77
41 | G14A U26C U130C | 0.63
42 | C17U A94G A118G U122C A129C | 0.47
43 | C17U A23G A69G A110C | 0.23
44 | G15U G50A A59U A63G U122A | 0.11
45 | C17G A18G A60G | 1.16
46 | A13U C61U A67U A89G U131C | 1.36
47 | G15C U43A A78G A140G | 0.24
48 | G15A U39C A51G A110G A126U | 0.1

Row | Variant | self-cleavage
49 | A18G A27U U49C G79C A118G U122C U131C | 0.03
50 | C17A C76G A96G U120G | 0.09
51 | A13U U39C U43A A59U A64U U87A G136A | 0.46
52 | C16A A24G U120C | 1.47
53 | C17G A67U A116G U132C | 0.42
54 | G15C U19A A30G U108C | 0.04
55 | G15C U39A A56G A125G | 0.68
56 | C16U A18U A27C U39C A117G | 1.13
57 | A18G A22U A140G | 1.46
58 | G14A A18G A23G A47G U124C U127C A134G | 0.09
59 | A13U A22U A23G A33C A78G A116U A140C | 0.1
60 | A18G A22G U43C A89G A114U | 0.09
61 | A13U U39C A59G A64G A114U U122C | 0.15
62 | A18C A92G A98U | 2.02
63 | A18C A67G A78U | 0.12
64 | G15A A92G A140G | 1.83
65 | A18G A23G U37A | 1.04
66 | G14A A24C U39C A82C A95G | 0.08
67 | A13U U49C U120C A126U | 0.53
68 | C17U A78G A95G U102A | 0.13
69 | A18G A23G A98G C128A | 0.3
70 | A13U U39C A59G A67G A86U A117G | 0.75
71 | C17A A24G U39A A54G A90G | 0.71
72 | C17U G21A A118G U124A | 0.4

Row | Variant | self-cleavage
73 | G15A G75A A89U | 0.11
74 | A13U A51G A110G | 0.1
75 | A18G A22G U43C A69G U102C A111G | 0.05
76 | G14A A63G A66G A82G A92G A129U | 0.21
77 | G14U U72C U108C | 0.01
78 | A18G A24U U72C A117G U120C | 0.2
79 | G14A A117U U122C | 0.73
80 | A18G A22G G41A A94U | 1.52
81 | G14A A23C A86G A89G | 1.22
82 | C17U A22G A52G | 0.4
83 | A13G U57C U132A | 1.06
84 | C17U A66G A90G U108C | 0.02
85 | G15A A30G A47C A89G U102C A134C | 1.6
86 | C16U A36U U70C | 0.74
87 | G14A U19C U57C A92G | 0.46
88 | A18C A63G A118G U131C | 0.46
89 | A13U C16U A89U | 0.65
90 | A18G A23G A98G | 1.13
91 | A13U A64G A66G A91G | 1.61
92 | A18C A24G A55G A110G | 0.12
93 | A18G A23G U130C U133C | 1.5
94 | G14A C46A C61U A96G | 0.76
95 | G14A A22G A118U U132C | 0.6
96 | A13U G29A U37C A78G G83A U87C C88U U131C | 0.14

Row | Variant | self-cleavage
97 | A13U A18G A47G A56G U100C | 2.21
98 | A13U A91G A92G U124C | 0.48
99 | G14C C42U A110C A111U | 0.02
100 | G15A U39C A86U | 2.09
101 | A13U A18G U37C A51G A56G U100A | 0.94
102 | G15A A33U C40U U97C U122A | 1.1
103 | A18G A22G U37G A64G | 1.27
104 | G15A U38C A69G | 1.54
105 | G15A A68G A110G | 0.13
106 | G15C A33G A96U | 1.15
107 | C16U A27G A110G U122C | 0.09
108 | A13U A55G A66G | 1.64
109 | A18C A23G A63G A111G A116U | 0.01
110 | G15A A23G A96G | 0.78
111 | A18C A63G U120A | 1.14
112 | C17U A24G A66G A69U A114G | 0.52
113 | G15C U70C A114U | 0.02
114 | A18G A22G U39C U103C A135U | 1.26
115 | A13G U87C A126G | 0.57
116 | C17U A22G U49A A51G U132C | 1.17
117 | A13G U49C C101A | 0.24
118 | G14A A64G A69G | 0.6
119 | A18C U39C A54G A89U U97C U103C C105U U108A | 0.01
120 | A13G U100A U102C | 1.6

Row | Variant | self-cleavage
121 | A18G A23G A33G A64G A111G | 0.04
122 | G14A A23C U124A | 1.01
123 | G15A A68G A111G | 0.01
124 | A18G A27G U132C | 0.72
125 | C16U A22U A64G A114C U133C | 0.04
126 | A13U C35U U38A A54G | 0.36
127 | G14A A23C U87C A91G | 0.92
128 | A18G A27U A114U A116G | 0.02
129 | G15A A23G U43C U97C U131C | 1.95
130 | A13G U108C A114U A117U A126G A129G | 0
131 | A13U A78G U87C | 0.32
132 | A18C A117G U122C | 1.91
133 | A13U U19C A89G A111G | 0.03
134 | G15A A64G U108C U127A A140G | 0.03
135 | A13G U57C U87A A89G A91G U103C G104A U122C | 0
136 | C16U U57C A140G | 0.48
137 | A18C A24G A60G U102C A111G | 0.04
138 | A13G U108C A129G | 0.01
139 | C16A U108C A110U C112U A114U | 0
140 | A13U C42G A110G | 0.16
141 | G15U A27G U72A | 0.08
142 | G14A A59G A98U | 1.21
143 | A18G A24U A30G U38C U57C A94G | 0.57
144 | C16U A30G U37C U130C | 0.37

Row | Variant | self-cleavage
145 | A18G A23G U38C | 1.54
146 | G15A A55G C71U | 0.31
147 | G14A A18G A60G A62C U102C | 0.83
148 | G14A A51G U132C | 1.78
149 | C16U A18G A56G U72C A94U | 0.08
150 | A13U A67G U108C A140G | 0.01
151 | A18G A23G A60G A96G A114U | 0.06
152 | G14C A64G A117U | 0.53
153 | C17A A94U A118C U132C | 0.17
154 | C16U U100C U108C | 0
155 | C16U A67G U108C A111U | 0
156 | C16U A110G U130C A140U | 0.04
157 | G14A A52G A82C | 0.13
158 | G15U A23G U70C | 0.86
159 | G15C U38C A52U U57A G74A | 0.16
160 | C17U A94U A98U | 2.1
161 | A18C A55C U102C U122C U127C | 1.82
162 | A13U C45U U49C U57C | 0.99
163 | G14A A94G U124C | 0.6
164 | A13U A55G A68G A69C A114G A135G | 0.03
165 | G14A U49C A78G U100C | 0.13
166 | C17A A30G A67U G93A | 1.33
167 | G14A A36G U38C A66U C85U | 0.79
